Measured values reported in PubChem BioAssay AID1346428 (National Center for Advancing Translational Sciences (NCATS), 2018).
Where “and” joins values, the source holds several entries; their conditions need not be identical. Equal entries are not always repeated. The campaign covered roughly 48,000 compounds. About 1,200 (2.5%) were called active. Inconclusive results (about 2%) are left out.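 Rule for the calls: active = activation of at least 60% and not above a set upper limit (about 1 call in 100 departs from these limits); inconclusive = activation of 40% to 60%, or above that upper limit; inactive = activation under 40%.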 This is one part of the list.

target: Probable G-protein coupled receptor 32 (Homo sapiens) (UniProt O75388); experiment: qHTS for Agonists of Human Resolvin D1 Receptor DRV1; details: CHO-K1 GPR32 beta-arrestin PathHunter luminescence, 90 min; at 76.9 µM; stronger effect = higher value; zero percent set by DMSO-only wells
Sequence of UniProt O75388 (O75388 whole entry, looked up): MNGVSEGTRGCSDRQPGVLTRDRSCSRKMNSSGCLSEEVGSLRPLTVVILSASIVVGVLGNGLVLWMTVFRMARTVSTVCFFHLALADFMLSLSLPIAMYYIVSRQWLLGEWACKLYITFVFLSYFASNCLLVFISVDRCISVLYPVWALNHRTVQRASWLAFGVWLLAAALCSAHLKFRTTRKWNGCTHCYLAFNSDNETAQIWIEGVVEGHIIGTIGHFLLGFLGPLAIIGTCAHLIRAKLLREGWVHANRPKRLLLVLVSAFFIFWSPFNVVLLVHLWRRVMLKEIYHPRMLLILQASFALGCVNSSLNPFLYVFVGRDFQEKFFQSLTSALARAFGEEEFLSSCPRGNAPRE
In short: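 Beta-arrestin recruitment read-out: luminescence from complemented beta-Gal in CHO-K1 GPR32 PathHunter cells, measured 1 h after detection reagent at ambient temperature following 90 min compound exposure at 37 °C; DMSO served as basal (EC0) control.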

**Q.** For COc1ccc(NC(=O)CC2C(=O)N(c3cccc(OC)c3)C(=O)N2CCc2cccs2)cc1 (stereo unspecified), which activation is on record?
**A.** inactive: -7.45%

**Q.** Which activation does the source give for O=C(COc1ccccc1F)Nc1ccc2nc(SCCOc3ccccc3)sc2c1 here?
**A.** active: 98.9%

**Q.** Which activation does the source give for O=C(NC1CC(=O)N(c2ccc(F)cc2)C1)c1ccc(S(=O)(=O)N2CCCCC2)cc1 (stereo unspecified) here?
**A.** inactive: -6.63%

**Q.** With O=c1c2sc3ccccc3c2n(Cc2cccc(F)c2)c(=O)n1Cc1ccccc1 as the compound, how does the activation read?
**A.** inactive: -8.09%

**Q.** CCOC(=O)Cn1c(=O)n(CC2CCCO2)c2nc(-c3ccccc3OC)nc(C(N)=O)c21 (stereo unspecified) was tested. Which activation did it give?
**A.** inactive: -13.6%

**Q.** Cc1ccc2c(c1Br)C(O)(CC(=O)c1ccc(F)cc1)C(=O)N2 (stereo unspecified) was tested. Which activation did it give?
**A.** inactive: -2.05%

**Q.** With O=C(NCc1cccs1)c1ccc2c(=O)n3nc(Nc4ccccc4)sc3nc2c1 as the compound, how does the activation read?
**A.** inactive: -8.67%

**Q.** How did the activation turn out when Cc1cccc2sc(N(Cc3cccnc3)C(=O)CCc3ccccc3)nc12 was run?
**A.** inactive: -24.4%

**Q.** How did the activation turn out when CCOC(=O)c1ccc(N2C(=O)c3[nH]nc(-c4ccccc4)c3C2c2ccc(CC)cc2)cc1 (stereo unspecified) was run?
**A.** inactive: -25.1%

**Q.** For COc1ccccc1CNC(=O)C1CCCN(S(=O)(=O)c2ccc3c(c2)oc(=O)n3C)C1 (stereo unspecified), which activation is on record?
**A.** inactive: 4.9%

**Q.** COc1ccc(-c2cc(C(=O)Nc3c(C(=O)c4ccc(C)cc4)oc4ccccc34)no2)cc1 was tested. Which activation did it give?
**A.** inactive: -5.97%

**Q.** Which activation does the source give for O=C(c1ccc2c(c1)N(Cc1ccccc1F)C(=O)c1ccccc1S2(=O)=O)N1CCC(Cc2ccccc2)CC1 here?
**A.** inactive: -2.52%

**Q.** For O=C(Cn1c(=O)n(Cc2nc(-c3ccccc3)no2)c(=O)c2ccccc21)Nc1cccc(C(F)(F)F)c1, which activation is on record?
**A.** inactive: 2.52%

**Q.** Which activation does the source give for CCOc1ccccc1C(=O)N(Cc1ccco1)Cc1ccco1 here?
**A.** inactive: -19.6%

**Q.** Which activation does the source give for Cc1c(Cl)cccc1NC(=O)CC1Oc2ccccc2NC1=O (stereo unspecified) here?
**A.** inactive: -0.625%

**Q.** Which activation does the source give for CC1C(=O)Nc2ccc(S(=O)(=O)N3CCCCC3)cc2NC1=O (stereo unspecified) here?
**A.** inactive: -11.8%

**Q.** How did the activation turn out when O=C(CCCn1c(=O)c2cccn2c2ccccc21)Nc1cc(C(F)(F)F)ccc1Cl was run?
**A.** inactive: -16.3%

**Q.** CCC(CC)C(=O)OCc1cc(=O)n2nc(C3CC3)sc2n1 was tested. Which activation did it give?
**A.** inactive: 21.6%

**Q.** How did the activation turn out when CC1=C(c2ccc(Cl)cc2)S(=O)(=O)NC1=NCCCN1CCN(c2cc(C)ccc2C)CC1 was run?
**A.** inactive: 0.251%

**Q.** With CCOc1ccc(NCc2cccn2-c2nnc(N3CCC(C(=O)NCC(C)c4ccccc4)CC3)s2)cc1 (stereo unspecified) as the compound, how does the activation read?
**A.** inactive: -29%

**Q.** Which activation does the source give for CCOc1ccccc1NC(=O)CN1C(=O)COc2ccc(S(=O)(=O)N3CCOCC3)cc21 here?
**A.** inactive: -20.2%

**Q.** CCOC(=O)c1cc(-c2ccc(OC)cc2)n(CCC(=O)Nc2ccccc2OC)c1C was tested. Which activation did it give?
**A.** inactive: -16.8%

**Q.** How did the activation turn out when O=C(CSc1nccn1Cc1ccccc1)NCc1ccco1 was run?
**A.** inactive: -9.55%

**Q.** How did the activation turn out when COc1ccc(Cn2c(CCC(=O)Nc3cc(OC)c(OC)c(OC)c3)nc3cccnc32)cc1 was run?
**A.** inactive: -15.1%

**Q.** CCN(c1ccccc1)S(=O)(=O)c1ccc(NC(=O)c2nc(SC)ncc2Cl)cc1 was tested. Which activation did it give?
**A.** inactive: -26.6%

**Q.** With COc1ccc(OC)c(NC(=O)CSc2ccc(-c3cccs3)nn2)c1 as the compound, how does the activation read?
**A.** inactive: 9.95%

**Q.** Which activation does the source give for COc1cc(OC)c(NC(=O)C2CCN(S(=O)(=O)c3c(C)noc3/C=C/c3c(C)cc(C)cc3C)CC2)cc1Cl here?
**A.** inactive: -0.242%

**Q.** Which activation does the source give for Cc1ccc(Cn2c(C(=O)O)c(CNCc3ccc(OC(C)C)cc3)c3ccc(C)cc32)cc1 here?
**A.** inactive: 41.8%

**Q.** For COc1cccc(-n2c(=O)c3c(C)c(C)sc3n(CC(=O)NCCc3ccc(OC)c(OC)c3)c2=O)c1, which activation is on record?
**A.** inactive: -0.486%

**Q.** How did the activation turn out when COc1cccc(CNC(=O)c2cc(C)nc3c2c(C)nn3-c2ccc(C)cc2)c1 was run?
**A.** inactive: -16.4%

**Q.** How did the activation turn out when COc1cccc(OCc2nc3ccccc3n2CCOc2ccc(C)cc2)c1 was run?
**A.** inactive: -20.6%

**Q.** With CN(Cc1ccccc1)C(=O)c1cn(C)c2ccc(S(=O)(=O)N3CCCCC3)cc2c1=O as the compound, how does the activation read?
**A.** inactive: 13.1%

**Q.** With COc1ccc2[nH]cc(CCNC(C)=O)c2c1 as the compound, how does the activation read?
**A.** inactive: -1.89% and inactive: 2.39%

**Q.** CCn1c(C(=O)NCc2ccc(F)cc2)cc2oc3ccccc3c21 was tested. Which activation did it give?
**A.** inactive: -7.48%

**Q.** For Cn1c(=O)oc2cc(S(=O)(=O)NC(Cc3ccccc3)C(=O)Nc3ccc(F)cc3)ccc21 (stereo unspecified), which activation is on record?
**A.** inactive: -6.42%

**Q.** How did the activation turn out when CCOC(=O)c1c(NC(=O)C(C)Sc2cn(CCNC(=O)c3c(F)cccc3F)c3ccccc23)sc2c1CCC2 (stereo unspecified) was run?
**A.** inactive: -4.01%

**Q.** How did the activation turn out when CC12CN3CC(c4ccccc4)(CN(C1)C3c1ccc(O)cc1)C2=O (stereo unspecified) was run?
**A.** inactive: 8.48%

**Q.** With Cc1ccc(-c2cc(C(=O)Nc3cc([N+](=O)[O-])ccc3C)no2)cc1F as the compound, how does the activation read?
**A.** inactive: -4.52%

**Q.** With COC(=O)c1c(NC(=O)C(C)Oc2ccc(Cl)c(C)c2)sc(C)c1C (stereo unspecified) as the compound, how does the activation read?
**A.** inactive: -11.1%

**Q.** Which activation does the source give for COc1ccc(OC)c(NS(=O)(=O)c2cc3c(cc2Cl)N(C(C)=O)CCO3)c1 here?
**A.** inactive: -0.332%

**Q.** For CCOc1ccc(NC(=O)CC2C(=O)N(c3ccc(F)cc3)C(=O)N2Cc2ccc(OC)c(OC)c2)cc1 (stereo unspecified), which activation is on record?
**A.** inactive: -10.3%

**Q.** Cc1ccc(Sc2c(C)nn(-c3ccccc3)c2OC(=O)C(C)(C)C)cc1 was tested. Which activation did it give?
**A.** inactive: 10.5%

**Q.** COc1ccc(OC)c(CCNC(=O)CS(=O)(=O)Cc2nc(-c3cccc(Cl)c3)oc2C)c1 was tested. Which activation did it give?
**A.** active: 88%

**Q.** Which activation does the source give for CCOC(=O)c1ccc(N2C(=O)c3n[nH]c(-c4cccs4)c3C2c2ccc(OCC)cc2)cc1 (stereo unspecified) here?
**A.** inactive: -19%

**Q.** With COc1ccc(CCNc2oc(/C=C/c3cc(OC)c(OC)c(OC)c3)nc2C#N)cc1OC as the compound, how does the activation read?
**A.** inactive: -18.7%

**Q.** With COc1ccccc1NC(=O)CSc1nnc(N)s1 as the compound, how does the activation read?
**A.** inactive: 24.7%

**Q.** Which activation does the source give for Cc1ccc(C)c2sc(NC(=O)c3ccc(S(=O)(=O)N4CCC(C)CC4)cc3)nc12 here?
**A.** inactive: -1.42%

**Q.** With O=C(CSc1nc2cc(C(=O)NC3CCCC3)ccc2c(=O)n1CC1CCCO1)c1cccc(Cl)c1 (stereo unspecified) as the compound, how does the activation read?
**A.** inactive: 9.96%

**Q.** For CCN1C(=O)c2ccccc2S(=O)c2ccc(C(=O)NCc3ccc(OC)cc3)cc21 (stereo unspecified), which activation is on record?
**A.** inactive: -14.7%

**Q.** Which activation does the source give for O=C(NCc1ccccc1Cl)c1ccc2c(c1)NC(=O)C(CS(=O)(=O)Cc1ccc(F)cc1Cl)N2 (stereo unspecified) here?
**A.** inactive: -25.1%

**Q.** Cc1oc(-c2cccc(Cl)c2)nc1CSc1nncn2c1cc1occc12 was tested. Which activation did it give?
**A.** inactive: -9.17%
